Laboratory results: publication PMC13423814
A number of entries come with more than one value. The list is limited to them. There may be further records. Some entries list several cross-links; each record is another pair of residues.

These substances were tested against MDH2 (UniProt P40926). Conditions: DSSO, in cells.

Sequence of SDHA (P31040 whole entry): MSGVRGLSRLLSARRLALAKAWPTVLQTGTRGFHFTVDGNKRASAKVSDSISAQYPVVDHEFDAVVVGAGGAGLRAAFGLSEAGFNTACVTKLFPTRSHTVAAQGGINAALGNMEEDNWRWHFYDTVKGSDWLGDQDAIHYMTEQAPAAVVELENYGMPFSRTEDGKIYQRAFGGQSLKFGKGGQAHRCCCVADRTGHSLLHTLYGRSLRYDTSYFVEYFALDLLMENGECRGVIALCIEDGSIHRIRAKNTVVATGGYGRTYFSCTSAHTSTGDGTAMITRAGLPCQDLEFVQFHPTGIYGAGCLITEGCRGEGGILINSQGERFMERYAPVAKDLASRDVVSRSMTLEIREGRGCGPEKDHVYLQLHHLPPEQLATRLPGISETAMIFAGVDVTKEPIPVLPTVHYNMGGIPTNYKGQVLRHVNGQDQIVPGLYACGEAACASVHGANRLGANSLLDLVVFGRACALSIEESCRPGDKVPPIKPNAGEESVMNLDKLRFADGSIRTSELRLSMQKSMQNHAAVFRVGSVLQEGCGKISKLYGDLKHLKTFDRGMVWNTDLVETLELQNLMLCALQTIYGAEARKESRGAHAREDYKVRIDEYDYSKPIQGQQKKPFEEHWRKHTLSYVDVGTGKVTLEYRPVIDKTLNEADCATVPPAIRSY
Sequence of DLD (P09622 whole entry): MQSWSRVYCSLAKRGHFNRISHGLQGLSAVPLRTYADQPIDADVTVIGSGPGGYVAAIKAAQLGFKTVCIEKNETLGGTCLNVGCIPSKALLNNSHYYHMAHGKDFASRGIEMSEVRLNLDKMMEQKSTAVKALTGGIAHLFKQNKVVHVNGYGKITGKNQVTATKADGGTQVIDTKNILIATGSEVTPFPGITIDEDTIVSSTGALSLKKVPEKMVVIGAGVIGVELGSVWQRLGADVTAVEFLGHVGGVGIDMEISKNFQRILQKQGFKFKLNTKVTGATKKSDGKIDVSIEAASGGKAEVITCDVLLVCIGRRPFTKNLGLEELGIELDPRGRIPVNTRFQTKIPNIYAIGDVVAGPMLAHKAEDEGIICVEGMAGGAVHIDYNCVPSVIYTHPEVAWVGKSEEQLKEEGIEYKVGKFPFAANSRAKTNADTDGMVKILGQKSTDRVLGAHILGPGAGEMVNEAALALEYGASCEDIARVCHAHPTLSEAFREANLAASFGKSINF
Sequence of FDXR (P22570 whole entry): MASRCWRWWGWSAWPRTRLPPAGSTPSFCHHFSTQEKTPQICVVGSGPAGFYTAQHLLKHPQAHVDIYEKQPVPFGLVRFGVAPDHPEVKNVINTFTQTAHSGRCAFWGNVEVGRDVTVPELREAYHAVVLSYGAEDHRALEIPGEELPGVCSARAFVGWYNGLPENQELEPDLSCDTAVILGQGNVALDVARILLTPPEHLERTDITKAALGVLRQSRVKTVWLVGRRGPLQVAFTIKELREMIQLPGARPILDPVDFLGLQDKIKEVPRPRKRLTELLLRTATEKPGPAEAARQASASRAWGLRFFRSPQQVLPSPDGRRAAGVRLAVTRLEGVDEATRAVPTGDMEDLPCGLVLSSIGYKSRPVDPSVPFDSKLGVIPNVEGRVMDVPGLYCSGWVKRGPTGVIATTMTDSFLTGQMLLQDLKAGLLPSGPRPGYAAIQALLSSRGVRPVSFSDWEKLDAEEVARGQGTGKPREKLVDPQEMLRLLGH

Substance	cross-linked residues
SDHA, P31040	K167 - K239 and K250 - K239 and K335 - K239
DLD, P09622	K159 - K239 and K277 - K239 and K430 - K239 and K445 - K239
FDXR, P22570	K209 - K239 and K287 - K239
